Test [1] concerns the target T1, neurofibromin EF fragment (1821–2818) (human) (UniProt P21359).
T1 sequence: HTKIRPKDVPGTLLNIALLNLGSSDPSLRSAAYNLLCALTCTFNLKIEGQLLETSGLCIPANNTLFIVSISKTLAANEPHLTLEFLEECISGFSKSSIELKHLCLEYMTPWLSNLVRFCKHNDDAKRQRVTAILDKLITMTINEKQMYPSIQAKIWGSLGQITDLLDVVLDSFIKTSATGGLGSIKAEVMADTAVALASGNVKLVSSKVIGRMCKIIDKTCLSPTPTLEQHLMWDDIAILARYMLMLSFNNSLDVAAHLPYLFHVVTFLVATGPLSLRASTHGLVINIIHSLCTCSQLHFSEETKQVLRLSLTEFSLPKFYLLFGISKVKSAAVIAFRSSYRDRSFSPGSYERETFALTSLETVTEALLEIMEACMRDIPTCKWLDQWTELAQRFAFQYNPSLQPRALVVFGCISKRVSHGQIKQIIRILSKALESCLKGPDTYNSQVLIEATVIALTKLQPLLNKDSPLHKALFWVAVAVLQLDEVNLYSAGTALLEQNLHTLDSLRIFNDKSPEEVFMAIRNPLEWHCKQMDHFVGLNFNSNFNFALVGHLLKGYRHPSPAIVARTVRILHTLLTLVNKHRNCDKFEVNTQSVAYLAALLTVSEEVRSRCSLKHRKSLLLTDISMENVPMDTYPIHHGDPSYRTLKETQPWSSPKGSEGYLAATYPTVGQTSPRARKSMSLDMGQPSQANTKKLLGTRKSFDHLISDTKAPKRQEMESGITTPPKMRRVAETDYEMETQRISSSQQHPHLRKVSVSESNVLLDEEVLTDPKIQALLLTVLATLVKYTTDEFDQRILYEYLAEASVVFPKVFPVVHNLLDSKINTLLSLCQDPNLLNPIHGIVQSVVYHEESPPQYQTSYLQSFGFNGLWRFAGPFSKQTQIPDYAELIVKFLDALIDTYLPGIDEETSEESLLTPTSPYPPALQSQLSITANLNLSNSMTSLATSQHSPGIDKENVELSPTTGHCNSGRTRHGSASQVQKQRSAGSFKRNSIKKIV
The test can be described thus: SEC-MALS; single purified proteins; Superose-6 Increase or Superdex S-200 10/300 GL, Wyatt Heleos and Optilab T-Rex; BSA as standard; both purified.

Test [2] has as its target T1, neurofibromin EF fragment (1821–2818) (human). The test can be described thus: SEC; equimolar mixtures of two purified NF1 fragments on an analytical SEC column, fractions analysed by SDS-PAGE; both purified.

These are yes or no findings as the source states them, for the method shown. Some results given as binding are weak or reduced against the parent protein; the word gives no strength.

B1: neurofibromin EF fragment (1821–2818) (domain or fragment, UniProt P21359-2 1821-2818)
chain: T1 sequence
As for B1, the binding entry in test [1] is “binds weakly”.

B2: neurofibromin D domain (1541–1820) (domain or fragment, UniProt P21359-2 1541-1820)
chain: LNLTSSKFEEFMTRHQVHEKEEFKALKTLSIFYQAGTSKAGNPIFYYVARRFKTGQINGDLLIYHVLLTLKPYYAKPYEIVVDLTHTGPSNRFKTDFLSKWFVVFPGFAYDNVSAVYIYNCNSWVREYTKYHERLLTGLKGSKRLVFIDCPGKLAEHIEHEQQKLPAATLALEEDLKVFHNALKLAHKDTKVSIKVGSTAVQVTSAERTKVLGQSVFLNDIYYASEIEEICLVDENQFTLTIANQGTPLTFMHQECEAIVQSIIHIRTRWELSQPDSIPQ
Regarding B2, the binding result in test [2] was “no binding”.

These data come from PMC6983858.
